B1: LINE1-mini (parent)
chain: GGCAGAGCUCAACACAGCGUGGCAAAGUGGCUGUGGCUAGACUGCC

Read counts are not given, so values of variants with three or more changes are uncertain.

Variants of B1 are the subject of the series. In words: self-cleavage, relative activity (ratio to wild type); higher = more cleavage; in vitro, sequencing; the parent is a self-cleaving ribozyme.
Take A16U A25C G30U C31A: the self-cleavage stood at 0.01. With G17U U20G U43A the figure was 0.17. The value for C18A C23A G29U G33A was 0.02; that for G17U U28C G30A G35A was 0.07; that for G17U U20G U38A was 0.04. The value for G17C C18A G22U A41C was 0.02; that for A16U U20C C37G was 0.04. Turning to G17A G22C C42U, the self-cleavage was 0.17. G17A C18A G21U: the self-cleavage came to 0.1. For G17A C18A C23A, the self-cleavage came out at 0.2.

On to G17U C37G C45A C46A, for which the self-cleavage was 0.02. With C18A G27C U38C C46G the figure was 0; with G17U G22C U28A, 0.14. Consider G17A G22U G27U, for which the self-cleavage was determined as 0.56. On to A16U C18U G29U G36A G40U, for which the self-cleavage worked out at 0.04.

Consider A16G G33U A39C, for which the self-cleavage was determined as 0.01. With C18A A24G A25G the figure was 0.43; with G17U U32A U38C, 0.02; with A16U G33C C37U A39C G44A, 0.02. Regarding A16U G17U U28G G40U, the self-cleavage was found to be 0.06.

On to C18A A24G A39G C45A, for which the self-cleavage turned out to be 0.11. With G17U G27U C45A the figure was 0.03; with G17U A24C A39U, 0.19. A16U G21U U38C: the self-cleavage is 0.12.

G17A G22C A24C G27U G40A C46U: the self-cleavage was 0.03.

Regarding A16U G36A C45G, the self-cleavage was determined as 0.1. The value for G17C G29C G30C U32A was 0.02.

G17A C23G A24C C46A: the self-cleavage is 0.03. C18A G21C C46U: the self-cleavage stood at 0.18. As for G17U A24U A26U U43A, the self-cleavage was 0.09. With A16U G17C C23G U38A the figure was 0.03; with C18A G19U U28G, 0.22; with G17U G36A C37A G44U, 0.03. With A16G U43C C46U the figure was 0.01; with C18A A24G A41U, 0.15. For G17A G30A G40U A41U, the self-cleavage amounted to 0.11. With G17A U20G G36C the figure was 0.02; with A16U G27U C31A G35C, 0.03; with A16U C18U G36C G40C C42A C46U, 0.02. The value for G17U G29U U32A was 0.1. With G17U U34C A39U C46A the figure was 0.05; with G17C U34G U43A, 0.02. As to G17A C18U C23U U32G, the self-cleavage is 0.04. As for G17C C18U G29U, the self-cleavage was determined as 0.76. With G17U G19U U34C the figure was 0.02; with G17C G22A C42G, 0.02; with A16U C37A A41U, 0.01.

With A16U U20G G21C C23U, the self-cleavage is 1.1. The value for A16U G22C C37G U38A was 0.14.

Take G17C C18G U32C G36A: the self-cleavage was determined as 0.04. With G17U C18G A24U the figure was 0.06. With G17U G21A G40U C46A the figure was 0.04; with G17C C37G C46A, 0.03. With C18A G22U A24U A26U the figure was 1.62. With C18A G21A G40A C42G, the self-cleavage amounted to 0.16. The value for A16U G17U G29A U38A was 0.41; that for A16G G33A G35C G44U was 0.03; that for G17U C23A C45U was 0.09. The value for G17A C37A A41C C46A was 0.02; that for G17C A24U G35C was 0.11.

As for C18A G22U U32C A39G G44C, the self-cleavage came out at 0.01. On to A16U A24U C31U C37U A39C, for which the self-cleavage came out at 0.06. With A16U U20G G22A A24C G27A G40C the figure was 0.28; with A16U G21C G30A, 0.11; with G17A A24G C45G, 0.02. Regarding C18A A26U A41G, the self-cleavage came to 0.09. G17C U20G G29A G44A: the self-cleavage was determined as 0.04. The value for C18A G29A C37A was 0.05. With G17A C23G A41G the figure was 0.02.

With G17U U20A G21C U28G C31U, the self-cleavage worked out at 0.08. With G17U U20A G27C G30A G40C C45U the figure was 0; with G17C G27A U32G G33C, 0.05; with G17A U32C G36U A39G C45A, 0.03. With A16U C18A U32G the figure was 0.14. As to A16U G29A C45U, the self-cleavage turned out to be 0.79. With G17U G30C C45G C46G the figure was 0.01; with G17U C37U A41C, 0.02. The value for G17A G33A C37U C46U was 0.01; that for G17A C18U G29A U38G A39U was 0.04.

On to G17U U20C A25U, for which the self-cleavage came to 0.35. Regarding G17U U20C A25C, the self-cleavage came to 0.07.

Turning to A16G G33A C37A, the self-cleavage was found to be 0.03. Take G17C C23A C31U G36C G44U: the self-cleavage is 0. The value for G17U C31A U32G was 0.06; that for C18A C23G G29U G30A was 1.24. With G17A G19U G35U A41C the figure was 0; with A16G G30C U34C, 0.1; with C18A G21U C37G G44A C46U, 0.02. With C18A A25U G30A C31U G33C C42U the figure was 0.04; with G17U C31A U34C G36U A39U, 0.03; with G17C G21U C45A, 0.23. On to C18A A25C U38C, for which the self-cleavage worked out at 0.11.

As for G17U U38A C45U, the self-cleavage was determined as 0.17. With G17A C18A G22A A26C the figure was 0.18; with G17C A24U U28A U34C, 0.06. With A16U G35C C46G, the self-cleavage was found to be 0.04. With G17U G35A U38A A41G, the self-cleavage came out at 0.02. In the case of G17U A25C C42A, the self-cleavage was 0.04. With C18A A26C G35A G40U G44A the figure was 0.01; with G17U A25U C37A, 0.07. With G17A U28A G40U U43C the figure was 0.09.

Regarding G17U C31A C37U, the self-cleavage was determined as 0.01. The value for G17C C18A C45A was 0.01; that for G17A C23G G35A was 0. With G17U C18U G22U C31U the figure was 0.02; with G17C G27U G33A C46G, 0.01; with A16U C42U C46A, 0.02. With G17A G29U G36U the figure was 0.03. As to G17A G19A G33A, the self-cleavage turned out to be 0.07. With A16U G35U C42U the figure was 0.22. For G17C A25G G29A A39G, the self-cleavage stood at 0.04. The value for G17A C18U G29C A39C was 0.05. The value for A16U U43A G44A C45A was 0.12; that for G17U G19A G44A was 0.09; that for G17U C18A G21U U43C was 0.01. As for A16U C42G G44C, the self-cleavage came out at 0.01. The value for A16U G30A C31U G35A was 0; that for C18A G19U A24C was 0.56; that for C18A A26G U28G U32C G44C was 0.02.

Take G17C G27C G35A A39C: the self-cleavage is 0.04. G17A G35U A41C C45U: the self-cleavage is 0.02.

G17U C31A U34A G36C: the self-cleavage came to 0.02. The value for G17A U34C A39C C42G was 0; that for G17A U20A C23U G35U G44C was 0.04; that for A16U G35U G40A C45G was 0.04. For A16U G17C C18U G29A U43C, the self-cleavage turned out to be 0.07. The value for G17C A24U G36A was 0.06. With C18A A24U C37A A39C U43A the figure was 0.04. The value for G17A G21U G22C A24C was 0.33; that for C18A A25C U28C was 0.1. Regarding G17C A26U G29U, the self-cleavage is 0.13.

Consider G17C U38A U43C, for which the self-cleavage is 0.01. With A16U C23G A26G G30C G35C G44C the figure was 0.03; with G17U U34G A41C, 0.06.

Consider A16U C42A C45U, for which the self-cleavage worked out at 0.03.

Regarding A16U C23A C42A, the self-cleavage was found to be 0.05.

For the variant G17U G22A A24C G33U G40U, the self-cleavage stood at 0.09. With G17U G40U U43A the figure was 0.18; with G17U U28A A39G, 0.02; with A16U C23G C46G, 0.06. With G17U U20A C42U the figure was 0.02. The value for G17A G19C G44U was 0.09.

In the case of C18A G19U G35A, the self-cleavage came to 0.04. The value for G17A G21C C31U was 0.41. Take G17C A25U C45U: the self-cleavage worked out at 0.17.

Regarding G17U G27U U34A, the self-cleavage amounted to 0.03. The value for G17C G27A A41C C42A was 0.02. The value for G17A A26C C31U G33U was 0.01. The value for G17U A24U A25U C31G was 1.22.

On to C18A G22C C46G, for which the self-cleavage is 0.43. Consider G17A C18U U38C, for which the self-cleavage worked out at 0.08. Take A16U G29A U38G: the self-cleavage came to 0.02. The value for G17A A24U C42U was 0.04. With G17U C23A A24U A25C A39U the figure was 0.05; with G17U G27A C31A C45U, 0.78. As to G17A G19U A26C G27C C45U, the self-cleavage stood at 0.06. As for C18A G21U G33C, the self-cleavage turned out to be 0.01. With G17U C23G U32A G33A the figure was 0.05; with G17U C23A C31A, 0.21. With C18A A26U G36A C37U the figure was 0.1.

Consider A16U G27U U28C C42G G44A, for which the self-cleavage was 0.03. The value for G17U G30U G35A A41C was 0.02; that for G17C U20A C23A U28G was 0.09; that for A16G U20G G40C was 0.06. The value for G17C A24C C31A was 0.03; that for G17C C18U G40U C46G was 0.01; that for G17C G33U U38G C45G C46G was 0.02.

(Values after the RNAGym collection of RNA variant scans (doi:10.7554/elife.90254).)
